Article PMC9911399, “Two distinct binding modes provide the RNA-binding protein RbFox with extraordinary sequence specificity”
Numbering of substitutions follows the chain as printed; changes in the protein carry UniProt numbers. This is one part of the list.

T1: RBFOX1 RRM RbFoxmut (Fox-RRM*) (Homo sapiens, UniProt Q9NWB1 109-208, R118D;E147R;N151S;E152T)
T1 sequence: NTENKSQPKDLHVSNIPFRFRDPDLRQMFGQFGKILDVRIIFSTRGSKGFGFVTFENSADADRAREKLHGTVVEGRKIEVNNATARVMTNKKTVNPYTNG

B1: CAAUUAC (DNA:RNA)
RNA: GGGAGACCGGAAUUCAGAUUGUCCCAAUUACUUAAAUCCCGUCGUAGCCACCA
DNA 1: CAATCTGAATTCCGGTCTCCC
DNA 2: TGGTGGCTACGACGGGATT
B2: UCCCGCU (DNA:RNA)
RNA: GGGAGACCGGAAUUCAGAUUGUCCUCCCGCUUUAAAUCCCGUCGUAGCCACCA
DNA 1: CAATCTGAATTCCGGTCTCCC
DNA 2: TGGTGGCTACGACGGGATT
B3: UCAGUGU (DNA:RNA)
RNA: B2 RNA with C27A, C28G, G29U, C30G
DNA 1: CAATCTGAATTCCGGTCTCCC
DNA 2: TGGTGGCTACGACGGGATT
B4: CUCGAUC (DNA:RNA)
RNA: B1 RNA with A26U, A27C, U28G, U29A, A30U
DNA 1: CAATCTGAATTCCGGTCTCCC
DNA 2: TGGTGGCTACGACGGGATT
B5: CGCAGCA (DNA:RNA)
RNA: B2 RNA with U25C, C26G, C28A, U31A
DNA 1: CAATCTGAATTCCGGTCTCCC
DNA 2: TGGTGGCTACGACGGGATT
B6: UGCUCUC (DNA:RNA)
RNA: B1 RNA with C25U, A26G, A27C, U29C, A30U
DNA 1: CAATCTGAATTCCGGTCTCCC
DNA 2: TGGTGGCTACGACGGGATT
B7: GCCUUUC (DNA:RNA)
RNA: B1 RNA with C25G, A26C, A27C, A30U
DNA 1: CAATCTGAATTCCGGTCTCCC
DNA 2: TGGTGGCTACGACGGGATT
B8: UGCGCCC (DNA:RNA)
RNA: B2 RNA with C26G, C28G, G29C, U31C
DNA 1: CAATCTGAATTCCGGTCTCCC
DNA 2: TGGTGGCTACGACGGGATT
B9: CACGUCA (DNA:RNA)
RNA: B1 RNA with A27C, U28G, A30C, C31A
DNA 1: CAATCTGAATTCCGGTCTCCC
DNA 2: TGGTGGCTACGACGGGATT
B10: CAUUGUG (DNA:RNA)
RNA: B1 RNA with A27U, U29G, A30U, C31G
DNA 1: CAATCTGAATTCCGGTCTCCC
DNA 2: TGGTGGCTACGACGGGATT
B11: GGAACAG (DNA:RNA)
RNA: B1 RNA with C25G, A26G, U28A, U29C, C31G
DNA 1: CAATCTGAATTCCGGTCTCCC
DNA 2: TGGTGGCTACGACGGGATT
B12: CGGACGU (DNA:RNA)
RNA: B1 RNA with A26G, A27G, U28A, U29C, A30G, C31U
DNA 1: CAATCTGAATTCCGGTCTCCC
DNA 2: TGGTGGCTACGACGGGATT
B13: AGAGUUC (DNA:RNA)
RNA: B1 RNA with C25A, A26G, U28G, A30U
DNA 1: CAATCTGAATTCCGGTCTCCC
DNA 2: TGGTGGCTACGACGGGATT
B14: CAAACAC (DNA:RNA)
RNA: B1 RNA with U28A, U29C
DNA 1: CAATCTGAATTCCGGTCTCCC
DNA 2: TGGTGGCTACGACGGGATT
B15: UAUUCCA (DNA:RNA)
RNA: B1 RNA with C25U, A27U, U29C, A30C, C31A
DNA 1: CAATCTGAATTCCGGTCTCCC
DNA 2: TGGTGGCTACGACGGGATT
B16: GCGCGUA (DNA:RNA)
RNA: B2 RNA with U25G, C27G, C30U, U31A
DNA 1: CAATCTGAATTCCGGTCTCCC
DNA 2: TGGTGGCTACGACGGGATT
B17: CCCUAGU (DNA:RNA)
RNA: B2 RNA with U25C, C28U, G29A, C30G
DNA 1: CAATCTGAATTCCGGTCTCCC
DNA 2: TGGTGGCTACGACGGGATT
B18: GCCCAUA (DNA:RNA)
RNA: B2 RNA with U25G, G29A, C30U, U31A
DNA 1: CAATCTGAATTCCGGTCTCCC
DNA 2: TGGTGGCTACGACGGGATT
B19: CCAACCA (DNA:RNA)
RNA: B1 RNA with A26C, U28A, U29C, A30C, C31A
DNA 1: CAATCTGAATTCCGGTCTCCC
DNA 2: TGGTGGCTACGACGGGATT
B20: CUACCCG (DNA:RNA)
RNA: B1 RNA with A26U, U28C, U29C, A30C, C31G
DNA 1: CAATCTGAATTCCGGTCTCCC
DNA 2: TGGTGGCTACGACGGGATT
B21: UAGUCGG (DNA:RNA)
RNA: B1 RNA with C25U, A27G, U29C, A30G, C31G
DNA 1: CAATCTGAATTCCGGTCTCCC
DNA 2: TGGTGGCTACGACGGGATT
B22: AGCCCAU (DNA:RNA)
RNA: B2 RNA with U25A, C26G, G29C, C30A
DNA 1: CAATCTGAATTCCGGTCTCCC
DNA 2: TGGTGGCTACGACGGGATT
B23: UUGUGGA (DNA:RNA)
RNA: B2 RNA with C26U, C27G, C28U, C30G, U31A
DNA 1: CAATCTGAATTCCGGTCTCCC
DNA 2: TGGTGGCTACGACGGGATT
B24: UCAAGUA (DNA:RNA)
RNA: B2 RNA with C27A, C28A, C30U, U31A
DNA 1: CAATCTGAATTCCGGTCTCCC
DNA 2: TGGTGGCTACGACGGGATT
B25: GUCUGGA (DNA:RNA)
RNA: B2 RNA with U25G, C26U, C28U, C30G, U31A
DNA 1: CAATCTGAATTCCGGTCTCCC
DNA 2: TGGTGGCTACGACGGGATT
B26: CCAACAC (DNA:RNA)
RNA: B1 RNA with A26C, U28A, U29C
DNA 1: CAATCTGAATTCCGGTCTCCC
DNA 2: TGGTGGCTACGACGGGATT
B27: CUUGGAG (DNA:RNA)
RNA: B1 RNA with A26U, A27U, U28G, U29G, C31G
DNA 1: CAATCTGAATTCCGGTCTCCC
DNA 2: TGGTGGCTACGACGGGATT
B28: GCAGGUU (DNA:RNA)
RNA: B2 RNA with U25G, C27A, C28G, C30U
DNA 1: CAATCTGAATTCCGGTCTCCC
DNA 2: TGGTGGCTACGACGGGATT
B29: CUAUGCC (DNA:RNA)
RNA: B1 RNA with A26U, U29G, A30C
DNA 1: CAATCTGAATTCCGGTCTCCC
DNA 2: TGGTGGCTACGACGGGATT
B30: ACUAGCC (DNA:RNA)
RNA: B2 RNA with U25A, C27U, C28A, U31C
DNA 1: CAATCTGAATTCCGGTCTCCC
DNA 2: TGGTGGCTACGACGGGATT
B31: ACUUUUA (DNA:RNA)
RNA: B1 RNA with C25A, A26C, A27U, A30U, C31A
DNA 1: CAATCTGAATTCCGGTCTCCC
DNA 2: TGGTGGCTACGACGGGATT

target: T1, RBFOX1 RRM RbFoxmut (Fox-RRM*); test: EMSA; HiTS-Eq, 1 nM pool, 10 min; buffer printed only for the single-RNA assays: 10 mM Tris pH 7.5, 150 mM NaCl, 3.4 mM EDTA, 0.001% NP-40, 30 C; conditions: tags: His6 N-terminal (pET28a); label: 5' 32P
Method in brief: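 Purified RbFox RRM (wild type or mutant) was equilibrated for 10 min in 50 µL with 1 nM of a 5′-radiolabelled pool of RNA with 7 randomized nucleotides, its flanks annealed to DNA oligonucleotides, across increasing protein concentrations. Free RNA was separated by 8% native PAGE, excised, reverse-transcribed, PCR-barcoded and sequenced on an Illumina HiSeq 2500. Relative association constants came from read-count changes of each variant against the control reaction, normalised to the cognate motif.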

| Binder | binding signal |
| --- | --- |
| B1 | 0.114 KA relative to UGCAUGU |
| B2 | 0.0857 KA relative to UGCAUGU |
| B3 | 0.172 KA relative to UGCAUGU |
| B4 | 0.0429 KA relative to UGCAUGU |
| B5 | 0.158 KA relative to UGCAUGU |
| B6 | 0.0594 KA relative to UGCAUGU |
| B7 | 0.0348 KA relative to UGCAUGU |
| B8 | 0.0827 KA relative to UGCAUGU |
| B9 | 0.124 KA relative to UGCAUGU |
| B10 | 0.166 KA relative to UGCAUGU |
| B11 | 0.096 KA relative to UGCAUGU |
| B12 | 0.104 KA relative to UGCAUGU |
| B13 | 0.0781 KA relative to UGCAUGU |
| B14 | 0.0768 KA relative to UGCAUGU |
| B15 | 0.0725 KA relative to UGCAUGU |
| B16 | 0.126 KA relative to UGCAUGU |

| Binder | binding signal |
| --- | --- |
| B17 | 0.0914 KA relative to UGCAUGU |
| B18 | 0.0938 KA relative to UGCAUGU |
| B19 | 0.0995 KA relative to UGCAUGU |
| B20 | 0.0609 KA relative to UGCAUGU |
| B21 | 0.101 KA relative to UGCAUGU |
| B22 | 0.0645 KA relative to UGCAUGU |
| B23 | 0.0632 KA relative to UGCAUGU |
| B24 | 0.141 KA relative to UGCAUGU |
| B25 | 0.0774 KA relative to UGCAUGU |
| B26 | 0.0711 KA relative to UGCAUGU |
| B27 | 0.11 KA relative to UGCAUGU |
| B28 | 0.0992 KA relative to UGCAUGU |
| B29 | 0.26 KA relative to UGCAUGU |
| B30 | 0.105 KA relative to UGCAUGU |
| B31 | 0.139 KA relative to UGCAUGU |
